Reference: the supplement of paper PMC4967469

Experiments:
Experiment in all cases: Viability of human cancer cell lines after 72 h of drug (GDSC screen)
SN-38 = compound: CCc1c2c(nc3ccc(O)cc13)-c1cc3c(c(=O)n1C2)COC(=O)[C@]3(O)CC [SN-38]; conditions: top dose 0.05 µM; top dose inferred
Description: (§1)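 Human cancer cell lines in 384-well plates, medium with 10% serum, drug for 72 h over a 256-fold dose range (nine 2-fold or five 4-fold steps up to the top dose). Adherent lines were fixed and stained with the nucleic acid dye Syto60, suspension lines read with resazurin; signal relative to control wells, capped at 0 and 100%. One two-parameter sigmoid per drug and line, fitted in a mixed model over all curves with the slope shared within a line.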

Dabrafenib = compound: CC(C)(C)c1nc(-c2cccc(NS(=O)(=O)c3c(F)cccc3F)c2F)c(-c2ccnc(N)n2)s1 [Dabrafenib]; conditions: top dose 10 µM
Description: as §1

Vorinostat = compound: O=C(CCCCCCC(=O)Nc1ccccc1)NO [Vorinostat]; conditions: top dose 10 µM
Description: as §1

Axitinib = compound: CNC(=O)c1ccccc1Sc1ccc2c(/C=C/c3ccccn3)n[nH]c2c1 [Axitinib]; conditions: top dose 2 µM
Description: as §1

Methotrexate = compound: CN(Cc1cnc2nc(N)nc(N)c2n1)c1ccc(C(=O)N[C@@H](CCC(=O)O)C(=O)O)cc1 [Methotrexate]; conditions: top dose 0.2 µM
Description: as §1

Row | Cell Line | AUC (SN-38) | IC50 (SN-38) [nM] | AUC (Dabrafenib) | IC50 (Dabrafenib) [nM] | AUC (Vorinostat) | IC50 (Vorinostat) [nM] | AUC (Axitinib) | IC50 (Axitinib) [nM] | AUC (Methotrexate) | IC50 (Methotrexate) [nM]
1 | RCM-1 (large intestine, adherent) | 0.849 | > 50 | 0.892 | > 10000 | 0.606 | 1300 | 0.98 | > 2000 | 0.94 | > 200
2 | PEO1 (ovary, adherent) | 0.56 | 4.58 | 0.97 | > 10000 | 0.82 | 6050 | 0.943 | > 2000 | 0.902 | > 200
3 | SW780 (bladder, adherent) | 0.644 | 8.11 | 0.968 | > 10000 | 0.826 | 6780 | 0.87 | > 2000 | 0.788 | 96.8
4 | CAS-1 (glioma, adherent) | 0.872 | > 50 | 0.978 | > 10000 | 0.892 | > 10000 | 0.924 | > 2000 | 0.981 | > 200
5 | KU-19-19 (bladder, adherent) | 0.406 | 1.73 | 0.617 | 1310 | 0.74 | 3030 | 0.987 | > 2000 | 0.925 | > 200
6 | LB647-SCLC (small cell lung carcinoma, semi-adherent) | 0.882 | > 50 | 0.983 | > 10000 | 0.508 | 657 | 0.882 | > 2000 | 0.945 | > 200
7 | MFE-296 (endometrium, adherent) | 0.487 | 2.87 | 0.92 | > 10000 | 0.759 | 3750 | 0.848 | 1650 | 0.975 | > 200
8 | HCC2157 (breast, suspension) | 0.967 | > 50 | 0.983 | > 10000 | 0.519 | 704 | 0.906 | > 2000 | 0.971 | > 200
9 | OVKATE (ovary, adherent) | 0.973 | > 50 | 0.966 | > 10000 | 0.971 | > 10000 | 0.937 | > 2000 | 0.979 | > 200
10 | SU8686 (pancreas, adherent) | 0.799 | 27.4 | 0.98 | > 10000 | 0.776 | 4490 | 0.978 | > 2000 | 0.817 | 130
11 | COLO-320-HSR (large intestine, suspension) | 0.897 | 47.6 | 0.991 | > 10000 | 0.529 | 740 | 0.951 | > 2000 | 0.583 | 20.5
12 | COR-L23 (large cell lung carcinoma, adherent) | 0.613 | 6.33 | 0.938 | > 10000 | 0.725 | 2670 | 0.963 | > 2000 | 0.783 | 81.7
13 | CP50-MEL-B (melanoma, adherent) | 0.886 | > 50 | 0.079 | < 39.1 | 0.872 | 9340 | 0.963 | > 2000 | 0.986 | > 200
14 | 451Lu (melanoma, adherent) | 0.897 | > 50 | 0.089 | < 39.1 | 0.505 | 643 | 0.973 | > 2000 | 0.986 | > 200
15 | ALL-PO (lymphoblastic leukaemia, suspension) | 0.908 | > 50 | 0.981 | > 10000 | 0.318 | 188 | 0.822 | 1260 | 0.807 | 110
16 | SNU-423 (liver, adherent) | 0.789 | 26.3 | 0.964 | > 10000 | 0.681 | 2200 | 0.904 | > 2000 | 0.983 | > 200
17 | SNU-61 (large intestine, adherent) | 0.98 | > 50 | 0.976 | > 10000 | 0.774 | 5220 | 0.955 | > 2000 | 0.982 | > 200
18 | SCC-9 (head and neck, adherent) | 0.809 | 35.5 | 0.973 | > 10000 | 0.881 | > 10000 | 0.975 | > 2000 | 0.972 | > 200
19 | MLMA (hairy cell leukaemia, semi-adherent) | 0.628 | 7.08 | 0.773 | 3940 | 0.728 | 2800 | 0.977 | > 2000 | 0.842 | 143
20 | NCI-H1623 (lung adenocarcinoma, adherent) | 0.446 | 2.16 | 0.983 | > 10000 | 0.851 | > 10000 | 0.982 | > 2000 | 0.982 | > 200
21 | SW962 (urogenital system, adherent) | 0.658 | 9.62 | 0.958 | > 10000 | 0.806 | 6670 | 0.962 | > 2000 | 0.979 | > 200
22 | TGBC1TKB (biliary tract, adherent) | 0.874 | 48.2 | 0.987 | > 10000 | 0.88 | > 10000 | 0.989 | > 2000 | 0.976 | > 200
23 | SLVL (B-cell lymphoma, suspension) | 0.581 | 5.28 | 0.966 | > 10000 | 0.593 | 1140 | 0.981 | > 2000 | 0.781 | 87.8
24 | GI-ME-N (neuroblastoma, adherent) | 0.497 | 3.06 | 0.664 | 2120 | 0.734 | 3780 | 0.871 | > 2000 | 0.838 | > 200
25 | NCI-H211 (small cell lung carcinoma, adherent) | 0.77 | 18.4 | 0.982 | > 10000 | 0.584 | 1050 | 0.918 | > 2000 | 0.71 | 48.1
26 | UWB1.289 (ovary, adherent) | 0.652 | 10.3 | 0.928 | > 10000 | 0.804 | 8360 | 0.97 | > 2000 | 0.959 | > 200

Row | Cell Line | AUC (SN-38) | IC50 (SN-38) [nM] | AUC (Dabrafenib) | IC50 (Dabrafenib) [nM] | AUC (Vorinostat) | IC50 (Vorinostat) [nM] | AUC (Axitinib) | IC50 (Axitinib) [nM] | AUC (Methotrexate) | IC50 (Methotrexate) [nM]
27 | TE-4 (oesophagus, adherent) | 0.758 | 17.2 | 0.952 | > 10000 | 0.512 | 673 | 0.946 | > 2000 | 0.937 | > 200
28 | NCI-H1781 (lung adenocarcinoma, adherent) | 0.622 | 6.75 | 0.983 | > 10000 | 0.927 | > 10000 | 0.944 | > 2000 | 0.989 | > 200
29 | SW1783 (glioma, adherent) | 0.646 | 7.57 | 0.99 | > 10000 | 0.912 | > 10000 | 0.991 | > 2000 | 0.99 | > 200
30 | CAL-39 (cervix, adherent) | 0.643 | 7.89 | 0.935 | > 10000 | 0.708 | 2480 | 0.975 | > 2000 | 0.986 | > 200
31 | ASH-3 (thyroid, adherent) | 0.755 | 16.9 | 0.896 | > 10000 | 0.815 | 5490 | 0.916 | > 2000 | 0.986 | > 200
32 | ES8 (Ewing sarcoma, adherent) | 0.262 | 0.694 | 0.969 | > 10000 | 0.579 | 1010 | 0.808 | 940 | 0.963 | > 200
33 | CAL-120 (breast, adherent) | 0.692 | 12.8 | 0.752 | 4180 | 0.785 | 5690 | 0.974 | > 2000 | 0.98 | > 200
34 | RERF-LC-MS (lung adenocarcinoma, adherent) | 0.589 | 5.52 | 0.938 | > 10000 | 0.826 | 6260 | 0.984 | > 2000 | 0.945 | > 200
35 | KNS-42 (glioma, adherent) | 0.771 | 23 | 0.909 | > 10000 | 0.907 | > 10000 | 0.981 | > 2000 | 0.983 | > 200
36 | SK-GT-2 (stomach, adherent) | 0.888 | > 50 | 0.852 | 8400 | 0.581 | 1060 | 0.924 | > 2000 | 0.794 | 97.9
37 | KE-37 (lymphoblastic leukaemia, suspension) | 0.377 | 1.56 | 0.532 | 747 | 0.538 | 775 | 0.923 | 1840 | 0.49 | 11.8
38 | TE-11 (oesophagus, adherent) | 0.707 | 11.3 | 0.976 | > 10000 | 0.8 | 4340 | 0.944 | > 2000 | 0.964 | > 200
39 | PC-14 (lung adenocarcinoma, adherent) | 0.667 | 8.62 | 0.985 | > 10000 | 0.76 | 3170 | 0.99 | > 2000 | 0.915 | > 200
40 | LOUCY (T-cell lymphoblastic leukaemia, suspension) | 0.879 | 35.4 | 0.97 | > 10000 | 0.462 | 504 | 0.983 | > 2000 | 0.99 | > 200
41 | NCI-H1435 (lung adenocarcinoma, semi-adherent) | 0.944 | > 50 | 0.992 | > 10000 | 0.539 | 791 | 0.986 | > 2000 | 0.988 | > 200
42 | G-401 (kidney, adherent) | 0.71 | 13.1 | 0.889 | > 10000 | 0.787 | 4810 | 0.917 | > 2000 | 0.881 | > 200
43 | SBC-1 (small cell lung carcinoma, suspension) | 0.831 | 30.2 | 0.987 | > 10000 | 0.479 | 549 | 0.947 | > 2000 | 0.91 | > 200
44 | BE-13 (lymphoblastic leukaemia, suspension) | 0.65 | 7.89 | 0.683 | 1960 | 0.484 | 567 | 0.748 | 607 | 0.631 | 28
45 | QIMR-WIL (acute myeloid leukaemia, suspension) | 0.562 | 4.6 | 0.752 | 3230 | 0.54 | 799 | 0.884 | > 2000 | 0.697 | 43.7
46 | M059J (glioma, adherent) | 0.654 | 8.72 | 0.976 | > 10000 | 0.823 | 6560 | 0.967 | > 2000 | 0.985 | > 200
47 | OC-314 (ovary, adherent) | 0.499 | 3.11 | 0.892 | 8860 | 0.743 | 2730 | 0.983 | > 2000 | 0.899 | 190
48 | SU-DHL-16 (B-cell lymphoma, suspension) | 0.825 | 19.8 | 0.514 | 676 | 0.461 | 502 | 0.95 | > 2000 | 0.925 | 160
49 | EN (endometrium, adherent) | 0.982 | > 50 | 0.982 | > 10000 | 0.84 | 9710 | 0.876 | > 2000 | 0.944 | > 200
50 | LB373-MEL-D (melanoma, adherent) | 0.939 | > 50 | 0.989 | > 10000 | 0.807 | 5010 | 0.973 | > 2000 | 0.99 | > 200
51 | NCI-H345 (small cell lung carcinoma, suspension) | 0.951 | > 50 | 0.989 | > 10000 | 0.703 | 2400 | 0.99 | > 2000 | 0.989 | > 200

The IC50 comes from the fitted curve, where viability falls to half of the control; fits outside the tested doses are given as limits. AUC, from the same fit, is the share of area under the viability curve across the 256-fold dose range; values near 1 show little effect. For part of these data: Any top dose called inferred was calculated from the reported fits.
